# Measurements: PubChem BioAssay AID1466 (National Center for Advancing Translational Sciences (NCATS), 2008)
# Out of some 200,000 compounds screened, about 10 (0.005%) were called active. This list was built around the results that the source calls inconclusive (neither active nor inactive); the mix of calls is not that of the screen. The call rests on the fitted dose curve; in most records, active means well fitted inhibition curve with a large enough effect; inconclusive means small, poorly fitted or top-dose-only effect, or effect the other way, or another doubt; inactive means no such curve, though single readings can be large or run the other way. No potency is given beside an inconclusive call; the fits are too rough.
# Target: Lysosomal alpha-glucosidase (Homo sapiens) (UniProt P10253)
# Test: qHTS Assay for Inhibitors of Human alpha-Glucosidase as a Potential Chaperone Treatment of Pompe Disease;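 on activity change, negative = inhibition: plate controls were uninhibited enzyme wells for no effect and no-enzyme background for full effect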
# Conditions: purified human GAA, 4-MU-alpha-glucoside fluorescence; activity change, negative = inhibition: at 76.9 µM (top of the series) unless noted
# Summary of the method: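 Compounds are titrated up to 77 uM against 4 nM human enzyme. Substrate 4-methylumbelliferyl-alpha-D-pyranoside (400 uM) reacts 20 min at room temperature in pH 5.0 buffer; liberated 4-methylumbelliferone is read at 440 nm.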
# Potency means the concentration at half of the fitted maximal effect; tags describe the fitted curve by direction and shape.
Structure (SMILES),Potency,"activity change, negative = inhibition"
C=CCn1c(SCC(=O)NCC)nnc1-c1cc2c(s1)CCC(CC)C2 (stereo unspecified),"inconclusive [inhibitor, full curve, poor fit]",–
Cc1nc(SCC(=O)c2ccc(Cl)cc2)c([N+](=O)[O-])[nH]1,"inconclusive [inhibitor, full curve, poor fit]",–
CC1(C)Cc2c(C#N)c(NCCc3ccccc3)nc(-c3ccco3)c2CO1,"inconclusive [activator, partial curve]",–
Cc1ccc(S(=O)(=O)N2CCN(CC(=O)N/N=C/C=C/c3ccccc3)CC2)cc1,"inconclusive [inhibitor, single point]",–
COc1ccccc1-c1cc(C(=O)NCc2cccs2)no1,"inconclusive [inhibitor, full curve, poor fit]",–
CCCCCCCCCCOC(=O)NC1CCS(=O)(=O)C1 (stereo unspecified),"inconclusive [inhibitor, single point]",–
CC(CCc1ccccc1)NC(=S)NC(=O)c1ccco1 (stereo unspecified),"inconclusive [inhibitor, single point]",–
CN(CCOCCOc1ccc(Cl)cc1Br)Cc1ccccc1,"inconclusive [inhibitor, partial curve]",–
Cc1ccccc1-n1cc(C(=O)c2cc(Cl)ccc2O)cc(C#N)c1=O,"inconclusive [inhibitor, full curve, poor fit]",–
O=C1CN(c2nc(-c3cccs3)nc3sc4c(c23)CCCC4)CCN1,–,inconclusive: 16.6% [activator]
Cc1cc2c(cc1C)NC(CC(=O)NCc1ccccc1)C(=O)N2 (stereo unspecified),"inconclusive [activator, partial curve]",–
COc1ccc(C(=O)Nc2ccccc2C(N)=O)cc1,inactive,–
C=CCn1c(SCC(=O)N2CCOCC2)nc2scc(-c3ccco3)c2c1=O,inactive,–
CCOC(=O)C1=C(C)NC(SCc2cc(=O)[nH][nH]2)=C(C#N)C1c1cccs1 (stereo unspecified),inactive,–
CN(C)S(=O)(=O)c1ccc(Cl)c(NC(=O)CN2CCNC(=O)C2)c1,inactive,–
COCCNC(=O)c1c(N)n(-c2ccccc2)c2nc3ccccc3nc12,"inconclusive [activator, partial curve]",–
O=C(Oc1ccc([N+](=O)[O-])cc1)c1cncc(Br)c1,"inconclusive [inhibitor, single point]",–
CN1CCC(=NNC(=O)c2ccc(N(Cc3ccc(Cl)cc3)S(C)(=O)=O)cc2)CC1,"inconclusive [inhibitor, single point]",–
CC(C)(C)c1ccc(NC(=O)C(=O)C2C(=O)Nc3ccccc32)cc1 (stereo unspecified),"inconclusive [inhibitor, single point]",–
O=C(c1cn(CC(=O)N2CCCCC2)c2ccccc12)C1CC1,"inconclusive [inhibitor, partial curve, poor fit]",–
COc1ccc(NC(=O)CC2SC(=NCC3CCCO3)NC2=O)cc1 (stereo unspecified),"inconclusive [inhibitor, single point]",–

Structure (SMILES),Potency,"activity change, negative = inhibition"
CCC(=O)N1CCN(c2cc(N3CCN(C)CC3)c(F)cc2[N+](=O)[O-])CC1,"inconclusive [inhibitor, single point]",–
O=C(CCCn1c(SCC(=O)c2ccc(O)c(O)c2)nc2ccccc2c1=O)NCC1CCCO1 (stereo unspecified),inactive,–
Cc1ccc(OCC(=O)Nc2ccc(S(=O)(=O)Nc3onc(C)c3C)cc2)cc1,–,inconclusive: -20.4% [inhibitor]
COc1ccc2c(C)c(Cl)c(=O)oc2c1,"inconclusive [activator, single point]",–
O=C(CCNC(=O)c1ccccc1Cl)Nc1ccc(Br)c(C(F)(F)F)c1,"inconclusive [inhibitor, full curve]",–
Cc1cc(C)c(S(=O)(=O)N2CCN(c3ccc([N+](=O)[O-])c(NCc4ccco4)c3)CC2)c(C)c1,"inconclusive [activator, full curve, poor fit]",–
Cc1nnc(SCC(=O)N2CCN(S(=O)(=O)c3ccc(Cl)cc3)CC2)n(N)c1=O,"inconclusive [inhibitor, single point]",–
COc1ccccc1C(=O)N1CCN(c2nc3cc(C)c(C)cc3cc2C#N)CC1,–,inconclusive: 18.6% [activator]
COc1ccc(/C=C\c2cc(OC)c(OC)cc2CC[N+](C)(C)C)cc1OC,–,inconclusive: -16% [inhibitor]
COc1ccc(-c2nn(CCC(=O)O)cc2CCC(=O)O)cc1,"inconclusive [inhibitor, single point]",–
O=C(c1ccco1)N1CCN(S(=O)(=O)c2ccc(S(=O)(=O)NC3CCCCC3)cc2)CC1,"inconclusive [inhibitor, partial curve, poor fit]",–
Cc1nc(-c2cccc(S(=O)(=O)N3CC(C)OC(C)C3)c2)cs1 (stereo unspecified),–,inconclusive: -16.4% [inhibitor]
Cn1c(SCc2cnc(-c3ccccc3)s2)nnc1C1COc2ccccc2O1 (stereo unspecified),"inconclusive [inhibitor, single point]",–
O=C(COc1ccc(S(=O)(=O)NC2CCCCC2)cc1)Nc1ccc2c(c1)OCCO2,"inconclusive [inhibitor, full curve]",–
COc1ccc(NS(=O)(=O)c2csc(C(=O)Nc3ccccc3)c2)cc1,"inconclusive [inhibitor, full curve, poor fit]",–
Cc1c(-c2ccnc3cc(C(=O)O)nn23)cnn1C,"inconclusive [activator, single point]",–
CCOC(=O)C1=C(c2ccccc2)N=c2s/c(=C\c3cccc(O)c3)c(=O)n2C1c1cccs1 (stereo unspecified),"inconclusive [inhibitor, partial curve]",–
O=C(Nc1ccc2ncccc2c1)c1ccccc1Cl,–,inconclusive: 15.4% [activator]
CC(C)NS(=O)(=O)c1ccc(CCC(=O)N2CCCCC2)cc1,–,inconclusive: 16% [activator]
COc1ccc(OCc2nnc(SCC(=O)N3c4ccccc4Sc4ccc(Cl)cc43)o2)cc1,"inconclusive [inhibitor, partial curve, poor fit]",–
